Experimental findings from PMC4336329 (PLoS ONE, 2015) are described below.

Among all 310,000 compounds or so, about 14,000 (4.5%) showed an effect of 50% or more. The effect is printed as a negative number. The list shows a part of the results.
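Further: peak tail current of the secondary pulse compared with the same well before compound.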

The target in this assay is human ether-à-go-go-related gene (hERG) potassium channel (human, UniProt Q12809). The assay can be described thus: primary screen, population patch clamp on CHO cells stably expressing hERG.
human ether-à-go-go-related gene (hERG) potassium channel, sequence (Q12809 whole entry, looked up): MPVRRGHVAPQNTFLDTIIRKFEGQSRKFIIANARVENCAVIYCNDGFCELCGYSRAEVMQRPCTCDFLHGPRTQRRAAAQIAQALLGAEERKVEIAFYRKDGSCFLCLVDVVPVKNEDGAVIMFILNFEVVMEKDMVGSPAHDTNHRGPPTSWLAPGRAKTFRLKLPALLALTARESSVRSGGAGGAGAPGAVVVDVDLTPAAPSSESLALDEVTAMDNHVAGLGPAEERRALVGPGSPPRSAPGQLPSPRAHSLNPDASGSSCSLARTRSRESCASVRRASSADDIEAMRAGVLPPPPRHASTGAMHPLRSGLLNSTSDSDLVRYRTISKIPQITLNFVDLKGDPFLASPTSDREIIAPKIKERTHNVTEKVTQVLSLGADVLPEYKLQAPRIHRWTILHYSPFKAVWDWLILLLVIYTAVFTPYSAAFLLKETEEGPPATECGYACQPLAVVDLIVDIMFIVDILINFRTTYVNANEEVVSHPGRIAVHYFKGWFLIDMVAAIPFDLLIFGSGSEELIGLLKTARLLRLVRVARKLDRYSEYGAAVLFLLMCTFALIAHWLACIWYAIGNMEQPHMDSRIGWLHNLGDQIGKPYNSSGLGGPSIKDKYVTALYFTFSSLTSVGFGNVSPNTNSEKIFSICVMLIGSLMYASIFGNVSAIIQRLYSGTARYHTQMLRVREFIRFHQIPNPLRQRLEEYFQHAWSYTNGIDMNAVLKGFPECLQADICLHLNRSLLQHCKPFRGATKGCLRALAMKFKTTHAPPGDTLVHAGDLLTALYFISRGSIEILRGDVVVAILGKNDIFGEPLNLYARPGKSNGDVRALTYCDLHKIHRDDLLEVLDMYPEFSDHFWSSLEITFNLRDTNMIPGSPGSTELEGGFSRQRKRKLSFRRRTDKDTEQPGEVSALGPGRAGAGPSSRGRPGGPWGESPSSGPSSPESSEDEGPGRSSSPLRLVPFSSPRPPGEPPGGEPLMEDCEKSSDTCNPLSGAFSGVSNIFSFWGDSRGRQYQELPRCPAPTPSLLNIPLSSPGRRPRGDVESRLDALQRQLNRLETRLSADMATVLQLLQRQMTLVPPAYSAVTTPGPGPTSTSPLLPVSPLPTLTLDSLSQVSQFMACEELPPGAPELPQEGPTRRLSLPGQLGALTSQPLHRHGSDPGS
On to `COc1ccc(Br)cc1CN(C)C(=O)c1cnc(C)cn1`, for which the “hERG current change (%, negative = inhibition) at 10uM” value is recorded as 4.02%. The same measure for `Cc1ccc(-n2c(O)c(C=Nc3ccc(S(=O)(=O)Nc4ncccn4)cc3)c3ccccc3c2=O)cc1C`: -21.6%. On to `Cc1ccc(Cn2c(Sc3nccc(C)n3)nc3c2c(=O)[nH]c(=O)n3C)cc1`, for which the “hERG current change (%, negative = inhibition) at 10uM” value is -8.13%. For the molecule `O=C(CCS(=O)(=O)c1ccc(Br)s1)N1CCc2ccccc21`, the “hERG current change (%, negative = inhibition) at 10uM” value is recorded as -0.987%. On to `NC(=O)c1ccsc1NC(=O)COC(=O)CNC(=O)c1ccc(F)cc1`, for which the “hERG current change (%, negative = inhibition) at 10uM” value is listed as -2.42%.

For the molecule `O=C(Nc1ccccc1)c1ccccc1C(=O)N1CCCCC1`, the “hERG current change (%, negative = inhibition) at 10uM” value came to 26.6%.

Take `Cc1cc(NC(=O)C(C)Sc2nc(-c3ccccc3)cc(=O)[nH]2)no1` (stereo not shown): the “hERG current change (%, negative = inhibition) at 10uM” value was found to be 9.66%. `CCCC1(c2ccccc2)NC(=O)N(C/C=C/Cl)C1=O` (stereo not shown): the “hERG current change (%, negative = inhibition) at 10uM” value was -8.22%. As for `Cc1cc(=O)oc2cc(Oc3ccc([N+](=O)[O-])cc3C(F)(F)F)ccc12`, the “hERG current change (%, negative = inhibition) at 10uM” value is on record as -15%. Under `O=C(c1ccc(=O)oc1)N1CCN(C(c2ccccc2)c2ccccc2)CC1` stands -32.2%; under `Cc1ccc(C(=O)CNc2ccccc2)cc1`, 16.2%; under `CCC(C)NC(=O)COC(=O)c1cc([N+](=O)[O-])ccc1Sc1nc(C)cs1` (stereo not shown), 4.21%. In the case of `O=C(NCc1ccc(Cl)cc1)C1CCCN1C(=O)Nc1ccccc1` (stereo not shown), the “hERG current change (%, negative = inhibition) at 10uM” value was -30.6%. For the molecule `COc1ccccc1CC(=O)NC12CC3CC(CC(C3)C1)C2`, the “hERG current change (%, negative = inhibition) at 10uM” value turned out to be 11.1%. Under `CN(C)C(CNS(=O)(=O)c1ccc(Cl)cc1)c1cccnc1` (stereo not shown) stands 18.2%. On to `c1ccc(-c2cn3c(n2)-c2ccccc2C3)cc1`, for which the “hERG current change (%, negative = inhibition) at 10uM” value is -2.81%.

As for `CN(CC(=O)Nc1cccc(F)c1)C(=O)CN1C(=O)NC2(CCCC2)C1=O`, the “hERG current change (%, negative = inhibition) at 10uM” value is on record as -4.04%. With `CC(C)(C)c1ccc(/C=N/NC(=O)Cc2c[nH]c3ccccc23)cc1`, the “hERG current change (%, negative = inhibition) at 10uM” value is given as 3.3%. The same measure for `Cc1ccc(S(=O)(=O)N2CCC(NC(=O)c3cccc(C)c3)CC2)cc1`: 1.29%; for `COc1cc2nc(N(C)CCCNC(=O)C3CCCO3)nc(N)c2cc1OC` (stereo not shown): -17.7%.

Turning to `O=S(=O)(c1ccc(Cl)cc1)n1cnc2ccccc21`, the “hERG current change (%, negative = inhibition) at 10uM” value amounted to 17.5%.

As to `CCCCCCCCN1[C@@H](CC(=O)OCC)c2ccc(C(F)(F)F)cc2S1(=O)=O`, the “hERG current change (%, negative = inhibition) at 10uM” value is recorded as -10.9%. Under `O=C1/C(=C\c2ccc(O)cc2)SC(=S)N1/N=C/c1ccc(O)cc1` stands 12.1%.

Take `CCCOc1ccc(/C=N/NC(=O)c2c(-c3ccccc3)noc2C)cc1OC`: the “hERG current change (%, negative = inhibition) at 10uM” value is listed as -8.6%.

Regarding `O=C(Cn1cnc2c(nnn2Cc2ccccc2F)c1=O)OCc1ccccc1`, the “hERG current change (%, negative = inhibition) at 10uM” value is -13.7%. For the molecule `COC(=O)NNC(=O)c1ccc(C)cc1`, the “hERG current change (%, negative = inhibition) at 10uM” value was -29.9%. The same measure for `Cc1ccc(S(=O)(=O)CC(=O)Nc2ccc(Cl)cn2)cc1`: -18.6%; for `CC(C)(C)OC(=O)N[C@H](C(=O)OC(C)(C)C)c1ccc(C(F)(F)F)cc1`: 6.05%; for `CCCSc1nc(C)c(-c2csc(C(C#N)=C3CCCC3)n2)cc1C#N`: -5.33%. For `CCOP(=O)(OCC)C(NC(=O)Nc1ccc(Cl)cc1)c1ccccc1` (stereo not shown), the “hERG current change (%, negative = inhibition) at 10uM” value was -4.45%.

Take `Cc1ccc(NC(=O)C2C3C=CC4(O3)C2C(=O)N(CCCN2CCOCC2)C4C(=O)NC2CCCCC2)cc1Cl` (stereo not shown): the “hERG current change (%, negative = inhibition) at 10uM” value worked out at 7.6%. For the molecule `COC(=O)[C@@H]1[C@@H](C)N(Cc2ccccc2)C(=O)N[C@H]1c1ccccc1`, the “hERG current change (%, negative = inhibition) at 10uM” value is listed as 8.6%. In the case of `Cc1ccc(OCC(=O)N2CC(C)OC(C)C2)c([N+](=O)[O-])n1` (stereo not shown), the “hERG current change (%, negative = inhibition) at 10uM” value is given as -17%.

Regarding `Cc1ccccc1NC(=O)COC(=O)c1ccc(CSc2ccc(Cl)cc2)cc1`, the “hERG current change (%, negative = inhibition) at 10uM” value was 6.49%. On to `NC(=O)NC(=O)COC(=O)CC12CC3CC(CC(C3)C1)C2`, for which the “hERG current change (%, negative = inhibition) at 10uM” value stood at 8.6%. Turning to `COc1ccccc1NC(=O)CSc1ccc(-c2ccco2)nn1`, the “hERG current change (%, negative = inhibition) at 10uM” value was -21.6%. Turning to `CSc1nc2ccc(NC(=O)c3c(-c4ccccc4)noc3C)cc2s1`, the “hERG current change (%, negative = inhibition) at 10uM” value came to 13%.

In the case of `CN(CC(=O)Nc1cc(Cl)ccc1C#N)C1CCS(=O)(=O)C1` (stereo not shown), the “hERG current change (%, negative = inhibition) at 10uM” value is -8.06%. The same measure for `S=c1[nH]nc(-c2cccs2)n1/N=C/c1cn(-c2ccccc2)nc1-c1ccc(Cl)cc1`: -15.3%; for `CCOC(=O)[C@H]1[C@H]2COc3ccc(Cl)cc3[C@@H]2N2C(=O)c3cc(F)ccc3NC(=O)[C@@]12C`: 0.562%. On to `CCCNC(=O)N1CCN(S(=O)(=O)c2ccc3c(c2)OCCO3)CC1`, for which the “hERG current change (%, negative = inhibition) at 10uM” value is reported as -0.0847%. The same measure for `COc1ccc(S(=O)(=O)N2CCNCC2)cc1OC`: 12.3%. As for `CCOC(=O)C1=C(N)Oc2cc(O)ccc2C1c1ccc(Br)cc1` (stereo not shown), the “hERG current change (%, negative = inhibition) at 10uM” value is given as 5.91%. As to `COc1ccc(S(=O)(=O)N2CC(O)CC2C(=O)OCC(=O)Nc2ccc(Cl)cn2)cc1` (stereo not shown), the “hERG current change (%, negative = inhibition) at 10uM” value is listed as -41.8%. In the case of `Cc1csc(=O)n1CCC(=O)OCC(=O)NCc1ccc(F)cc1`, the “hERG current change (%, negative = inhibition) at 10uM” value is 4.46%. The same measure for `Cc1cc(Cl)ccc1OCC(=O)NCCC(=O)O`: 14.6%; for `CCOC(=O)c1cc(S(=O)(=O)Nc2ccc(OC)cc2OC)cn1C`: 2.59%; for `COc1ccccc1N1CCN(C(=O)C(=O)c2cn(CC(=O)N3CCCCCC3)c3ccccc23)CC1`: -8.58%.

As for `COc1cccc(C(=O)NCCCNC(=O)c2ccco2)c1`, the “hERG current change (%, negative = inhibition) at 10uM” value is on record as 5.39%. Under `Cc1cc(N2C(=O)C(=O)/C(=C(/O)c3ccc(Cl)cc3)C2c2cccc(Br)c2)no1` (stereo not shown) stands -4.41%. On to `Cc1cccc(C)c1NC(=O)CSc1nc(COc2ccccc2)nc2ccccc12`, for which the “hERG current change (%, negative = inhibition) at 10uM” value is given as -8.72%. For `O=C(CCCO)CCCCCCCCC[C@H]1N[C@H](CO)[C@@H](O)[C@@H]1O`, the “hERG current change (%, negative = inhibition) at 10uM” value is 6.38%. Under `COc1ccc(C(O)P(=O)(OCCC(C)C)c2ccc(N(C)C)cc2)cc1OC` (stereo not shown) stands 5.79%.

`COc1ccc(NC(=O)NCc2ccc(Cl)cc2)cc1`: the “hERG current change (%, negative = inhibition) at 10uM” value stood at 9.26%.

`Fc1ccc(CNC(=S)NC2CCCC2)cc1`: the “hERG current change (%, negative = inhibition) at 10uM” value stood at 10.1%. Regarding `C[C@]12C=CC(=O)C=C1C=C[C@@H]1C2CC[C@]2(C)C(=O)CCC12` (stereo partly shown), the “hERG current change (%, negative = inhibition) at 10uM” value is given as -7.32%. For `CC(C)(C)C(=O)NC(=S)Nc1ccccc1N1CCCC1`, the “hERG current change (%, negative = inhibition) at 10uM” value was 8.62%.

For the molecule `c1ccc(N=P(N2CCOCC2)(N2CCOCC2)N2CCOCC2)cc1`, the “hERG current change (%, negative = inhibition) at 10uM” value is given as -2.76%.

As to `Cc1ccc(NC(=O)C2CCCN(S(=O)(=O)c3cccc4cccnc34)C2)cc1` (stereo not shown), the “hERG current change (%, negative = inhibition) at 10uM” value is listed as -17.6%. For `CCCc1nnc(NC(=O)CCC(=O)N2CCN(Cc3ccc(F)cc3)CC2)s1`, the “hERG current change (%, negative = inhibition) at 10uM” value was found to be 1.56%. With `CC(=O)NC(CC(=O)OCC(=O)NCCc1ccccc1)c1ccccc1` (stereo not shown), the “hERG current change (%, negative = inhibition) at 10uM” value is on record as 13.7%. Under `Cc1ccc(C)n1-c1ccc(C(=O)NN)s1` stands 5.43%. As for `COC(=O)CCCCC1SCC2NC(=O)NC21` (stereo not shown), the “hERG current change (%, negative = inhibition) at 10uM” value amounted to 8.96%. The same measure for `COc1ccc(OCc2cc(-c3ccc(Cl)cc3)no2)cc1`: 9.68%; for `CCOC(=O)C1=C(N)n2c(s/c(=C/c3ccccc3)c2=O)=C(C(=O)OCC)C1c1ccccc1` (stereo not shown): 7.33%. The same measure for `CC(C)CSc1nsc(N)n1`: 23.1%; for `OC1(C(F)(F)F)CC(c2ccc3ccccc3c2)=NO1` (stereo not shown): 4.45%. For the molecule `CC1CCN(C(=O)COC(=O)C23CC4CC(CC(O)(C4)C2)C3)CC1`, the “hERG current change (%, negative = inhibition) at 10uM” value came to 9.83%. On to `Cc1ccc(N(C)C(=O)c2ccc(CNc3c(N4CCC(C)CC4)c(=O)c3=O)cc2)cc1`, for which the “hERG current change (%, negative = inhibition) at 10uM” value amounted to 5.04%. For the molecule `O=C(N/N=C/c1ccccc1C(=O)O)c1cc(-c2ccc3c4c(cccc24)CC3)n[nH]1`, the “hERG current change (%, negative = inhibition) at 10uM” value was found to be 21.2%. Regarding `Cc1ccsc1C1NC(=O)c2c(sc3c2CCCC3)N1` (stereo not shown), the “hERG current change (%, negative = inhibition) at 10uM” value was -5.53%. As for `CN(C)c1cc2c(cc1NC(=O)c1ccccc1Cl)n(C)c(=O)n2C`, the “hERG current change (%, negative = inhibition) at 10uM” value turned out to be 7.89%. Under `C=CCNCC(=O)N1N=C(c2ccc3ccccc3c2)CC1c1ccc(OC)cc1.O=C(O)C(=O)O` (stereo not shown) stands -36%; under `O=C(O)c1ccc(S(=O)(=O)c2ccc3c(c2)C(=O)N(CC2CCCO2)C3=O)cc1` (stereo not shown), 11.3%.

As for `CN(Cc1ccccc1F)c1ccc(S(=O)(=O)N2CCCC2)cn1`, the “hERG current change (%, negative = inhibition) at 10uM” value is -5.47%. As to `COc1cccc(CNC(=O)C2CCCN(c3cnccn3)C2)c1` (stereo not shown), the “hERG current change (%, negative = inhibition) at 10uM” value was -14.4%. In the case of `O=C(O)c1ccccc1C(=O)NCc1ccc(F)cc1`, the “hERG current change (%, negative = inhibition) at 10uM” value amounted to 13.1%.

For the molecule `c1ccc2c(c1)nc1sccn12`, the “hERG current change (%, negative = inhibition) at 10uM” value was -9.75%. The same measure for `NC(=O)c1ccsc1NC(=O)CN1C(=O)NC2(CCCCC2)C1=O`: 27.7%. The same measure for `CCC(CC)c1nnc(NC(=O)c2nc3nc(C)cc(C)n3n2)s1`: 8.09%; for `CCOC(=O)Cn1nc(C)c(NC(=O)c2ccc([N+](=O)[O-])c(C)c2)c1C`: 10.2%; for `COc1ccc2cc(CCNC(=O)CCc3ccccc3)c(=O)[nH]c2c1`: -0.519%. `CCc1ccccc1NC(=O)N1C2CCCC1CC(NC(C)=O)C2` (stereo not shown): the “hERG current change (%, negative = inhibition) at 10uM” value is 21.4%.

Take `O=C1c2ccccc2C(=O)c2cc(S(=O)(=O)Nc3ccccc3)ccc21`: the “hERG current change (%, negative = inhibition) at 10uM” value worked out at 8.24%. The same measure for `CCN(CC(=O)NC(C)(C)C)C(=O)CCl`: -0.283%; for `CSCCC(NC(=O)c1ccccc1Cl)C(=O)NNC(=O)c1csc(N2CCOCC2)n1` (stereo not shown): -29.9%; for `Cc1ccc(C(=O)Nc2ccccc2Oc2ccccc2)o1`: -4.72%. The same measure for `CC(=O)c1ccc(NC(=O)C2CC(=O)N(Cc3ccccc3)C2)cc1` (stereo not shown): 13.4%.
